Data: article PMC9911399, “Two distinct binding modes provide the RNA-binding protein RbFox with extraordinary sequence specificity”
Numbering of substitutions follows the chain as printed; changes in the protein carry UniProt numbers. The list shows a part of the results.

T1: RBFOX1 RRM (Homo sapiens, UniProt Q9NWB1 109-208)
T1 sequence: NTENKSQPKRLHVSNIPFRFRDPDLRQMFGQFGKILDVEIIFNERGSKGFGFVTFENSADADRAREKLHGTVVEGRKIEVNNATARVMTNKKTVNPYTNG

B1: CAGGAAG (DNA:RNA)
RNA: GGGAGACCGGAAUUCAGAUUGUCCCAGGAAGUUAAAUCCCGUCGUAGCCACCA
DNA 1: CAATCTGAATTCCGGTCTCCC
DNA 2: TGGTGGCTACGACGGGATT
B2: GCUUCCU (DNA:RNA)
RNA: GGGAGACCGGAAUUCAGAUUGUCCGCUUCCUUUAAAUCCCGUCGUAGCCACCA
DNA 1: CAATCTGAATTCCGGTCTCCC
DNA 2: TGGTGGCTACGACGGGATT
B3: UGGCCCA (DNA:RNA)
RNA: B2 RNA with G25U, C26G, U27G, U28C, U31A
DNA 1: CAATCTGAATTCCGGTCTCCC
DNA 2: TGGTGGCTACGACGGGATT
B4: GGAGGUG (DNA:RNA)
RNA: B1 RNA with C25G, A26G, G27A, A29G, A30U
DNA 1: CAATCTGAATTCCGGTCTCCC
DNA 2: TGGTGGCTACGACGGGATT
B5: UGUAGAU (DNA:RNA)
RNA: B2 RNA with G25U, C26G, U28A, C29G, C30A
DNA 1: CAATCTGAATTCCGGTCTCCC
DNA 2: TGGTGGCTACGACGGGATT
B6: CUUUCCU (DNA:RNA)
RNA: B2 RNA with G25C, C26U
DNA 1: CAATCTGAATTCCGGTCTCCC
DNA 2: TGGTGGCTACGACGGGATT
B7: AUUCGGG (DNA:RNA)
RNA: B1 RNA with C25A, A26U, G27U, G28C, A29G, A30G
DNA 1: CAATCTGAATTCCGGTCTCCC
DNA 2: TGGTGGCTACGACGGGATT
B8: UCGCUGU (DNA:RNA)
RNA: B2 RNA with G25U, U27G, U28C, C29U, C30G
DNA 1: CAATCTGAATTCCGGTCTCCC
DNA 2: TGGTGGCTACGACGGGATT
B9: AAUUGUC (DNA:RNA)
RNA: B2 RNA with G25A, C26A, C29G, C30U, U31C
DNA 1: CAATCTGAATTCCGGTCTCCC
DNA 2: TGGTGGCTACGACGGGATT
B10: AAUGGUC (DNA:RNA)
RNA: B1 RNA with C25A, G27U, A29G, A30U, G31C
DNA 1: CAATCTGAATTCCGGTCTCCC
DNA 2: TGGTGGCTACGACGGGATT
B11: GUCGGAG (DNA:RNA)
RNA: B1 RNA with C25G, A26U, G27C, A29G
DNA 1: CAATCTGAATTCCGGTCTCCC
DNA 2: TGGTGGCTACGACGGGATT
B12: GCGCCAC (DNA:RNA)
RNA: B2 RNA with U27G, U28C, C30A, U31C
DNA 1: CAATCTGAATTCCGGTCTCCC
DNA 2: TGGTGGCTACGACGGGATT
B13: GAAGAUU (DNA:RNA)
RNA: B1 RNA with C25G, G27A, A30U, G31U
DNA 1: CAATCTGAATTCCGGTCTCCC
DNA 2: TGGTGGCTACGACGGGATT
B14: UAGGAGU (DNA:RNA)
RNA: B1 RNA with C25U, A30G, G31U
DNA 1: CAATCTGAATTCCGGTCTCCC
DNA 2: TGGTGGCTACGACGGGATT
B15: UCGCAUG (DNA:RNA)
RNA: B1 RNA with C25U, A26C, G28C, A30U
DNA 1: CAATCTGAATTCCGGTCTCCC
DNA 2: TGGTGGCTACGACGGGATT
B16: UGUGCGC (DNA:RNA)
RNA: B2 RNA with G25U, C26G, U28G, C30G, U31C
DNA 1: CAATCTGAATTCCGGTCTCCC
DNA 2: TGGTGGCTACGACGGGATT
B17: AUAUUAC (DNA:RNA)
RNA: B1 RNA with C25A, A26U, G27A, G28U, A29U, G31C
DNA 1: CAATCTGAATTCCGGTCTCCC
DNA 2: TGGTGGCTACGACGGGATT
B18: GUCACCG (DNA:RNA)
RNA: B2 RNA with C26U, U27C, U28A, U31G
DNA 1: CAATCTGAATTCCGGTCTCCC
DNA 2: TGGTGGCTACGACGGGATT
B19: UACCGGG (DNA:RNA)
RNA: B1 RNA with C25U, G27C, G28C, A29G, A30G
DNA 1: CAATCTGAATTCCGGTCTCCC
DNA 2: TGGTGGCTACGACGGGATT
B20: UUUCGCG (DNA:RNA)
RNA: B2 RNA with G25U, C26U, U28C, C29G, U31G
DNA 1: CAATCTGAATTCCGGTCTCCC
DNA 2: TGGTGGCTACGACGGGATT
B21: CUUUAAG (DNA:RNA)
RNA: B1 RNA with A26U, G27U, G28U
DNA 1: CAATCTGAATTCCGGTCTCCC
DNA 2: TGGTGGCTACGACGGGATT
B22: GAUCAUC (DNA:RNA)
RNA: B1 RNA with C25G, G27U, G28C, A30U, G31C
DNA 1: CAATCTGAATTCCGGTCTCCC
DNA 2: TGGTGGCTACGACGGGATT
B23: GACACUG (DNA:RNA)
RNA: B1 RNA with C25G, G27C, G28A, A29C, A30U
DNA 1: CAATCTGAATTCCGGTCTCCC
DNA 2: TGGTGGCTACGACGGGATT
B24: AUUUUCC (DNA:RNA)
RNA: B2 RNA with G25A, C26U, C29U, U31C
DNA 1: CAATCTGAATTCCGGTCTCCC
DNA 2: TGGTGGCTACGACGGGATT
B25: UAUACUG (DNA:RNA)
RNA: B1 RNA with C25U, G27U, G28A, A29C, A30U
DNA 1: CAATCTGAATTCCGGTCTCCC
DNA 2: TGGTGGCTACGACGGGATT
B26: GAGUAGC (DNA:RNA)
RNA: B1 RNA with C25G, G28U, A30G, G31C
DNA 1: CAATCTGAATTCCGGTCTCCC
DNA 2: TGGTGGCTACGACGGGATT
B27: CUGUCUG (DNA:RNA)
RNA: B1 RNA with A26U, G28U, A29C, A30U
DNA 1: CAATCTGAATTCCGGTCTCCC
DNA 2: TGGTGGCTACGACGGGATT
B28: AGGACGG (DNA:RNA)
RNA: B1 RNA with C25A, A26G, G28A, A29C, A30G
DNA 1: CAATCTGAATTCCGGTCTCCC
DNA 2: TGGTGGCTACGACGGGATT
B29: AUCGUAU (DNA:RNA)
RNA: B1 RNA with C25A, A26U, G27C, A29U, G31U
DNA 1: CAATCTGAATTCCGGTCTCCC
DNA 2: TGGTGGCTACGACGGGATT
B30: UCCCAUG (DNA:RNA)
RNA: B1 RNA with C25U, A26C, G27C, G28C, A30U
DNA 1: CAATCTGAATTCCGGTCTCCC
DNA 2: TGGTGGCTACGACGGGATT
B31: AGAUGAA (DNA:RNA)
RNA: B1 RNA with C25A, A26G, G27A, G28U, A29G, G31A
DNA 1: CAATCTGAATTCCGGTCTCCC
DNA 2: TGGTGGCTACGACGGGATT

Biological target: T1, RBFOX1 RRM
Assay: EMSA; HiTS-Eq, 1 nM pool, 10 min; buffer printed only for the single-RNA assays: 10 mM Tris pH 7.5, 150 mM NaCl, 3.4 mM EDTA, 0.001% NP-40, 30 C
Conditions: tags: His6 N-terminal (pET28a); label: 5' 32P
In short: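 A pool of RNA with 7 randomized nucleotides, 5′-radiolabelled and with DNA-annealed flanks, was equilibrated at 1 nM for 10 min in 50 µL with purified RbFox RRM, wild type or mutant, across increasing protein concentrations. Free RNA was separated by 8% native PAGE, excised, reverse-transcribed, barcoded by PCR and sequenced. Relative association constants were obtained from read-count changes of each RNA species versus the control reaction and normalised to the cognate motif.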

B1 was tested. Which binding signal did it give?
The binding signal was 0.0176 KA relative to UGCAUGU.

Which binding signal does the source give for B2 here?
The binding signal was 0.0109 KA relative to UGCAUGU.

Which binding signal does the source give for B3 here?
Its binding signal is 0.0127 KA relative to UGCAUGU.

For B4, which binding signal is on record?
Its binding signal is 0.0187 KA relative to UGCAUGU.

B5 was tested. Which binding signal did it give?
The binding signal was 0.0166 KA relative to UGCAUGU.

B6 was tested. Which binding signal did it give?
The binding signal was 0.0054 KA relative to UGCAUGU.

B7 was tested. Which binding signal did it give?
Its binding signal is 0.00371 KA relative to UGCAUGU.

How did the binding signal turn out when B8 was run?
The binding signal was 0.0158 KA relative to UGCAUGU.

Which binding signal does the source give for B9 here?
The binding signal was 0.012 KA relative to UGCAUGU.

How did the binding signal turn out when B10 was run?
The binding signal was 0.0155 KA relative to UGCAUGU.

Which binding signal does the source give for B11 here?
Its binding signal is 0.0107 KA relative to UGCAUGU.

Which binding signal does the source give for B12 here?
Its binding signal is 0.00734 KA relative to UGCAUGU.

For B13, which binding signal is on record?
Its binding signal is 0.0102 KA relative to UGCAUGU.

For B14, which binding signal is on record?
Its binding signal is 0.00816 KA relative to UGCAUGU.

Which binding signal does the source give for B15 here?
Its binding signal is 0.809 KA relative to UGCAUGU.

With B16 as the binder, how does the binding signal read?
Its binding signal is 0.0248 KA relative to UGCAUGU.

How did the binding signal turn out when B17 was run?
Its binding signal is 0.00166 KA relative to UGCAUGU.

With B18 as the binder, how does the binding signal read?
The binding signal was 0.00574 KA relative to UGCAUGU.

With B19 as the binder, how does the binding signal read?
Its binding signal is 0.0072 KA relative to UGCAUGU.

Which binding signal does the source give for B20 here?
Its binding signal is 0.0181 KA relative to UGCAUGU.

B21 was tested. Which binding signal did it give?
Its binding signal is 0.00803 KA relative to UGCAUGU.

B22 was tested. Which binding signal did it give?
The binding signal was 0.00783 KA relative to UGCAUGU.

With B23 as the binder, how does the binding signal read?
The binding signal was 0.0175 KA relative to UGCAUGU.

How did the binding signal turn out when B24 was run?
Its binding signal is 0.00413 KA relative to UGCAUGU.

For B25, which binding signal is on record?
Its binding signal is 0.0121 KA relative to UGCAUGU.

B26 was tested. Which binding signal did it give?
Its binding signal is 0.0126 KA relative to UGCAUGU.

For B27, which binding signal is on record?
The binding signal was 0.0306 KA relative to UGCAUGU.

With B28 as the binder, how does the binding signal read?
Its binding signal is 0.0243 KA relative to UGCAUGU.

With B29 as the binder, how does the binding signal read?
The binding signal was 0.00592 KA relative to UGCAUGU.

How did the binding signal turn out when B30 was run?
Its binding signal is 0.000313 KA relative to UGCAUGU.

B31 was tested. Which binding signal did it give?
The binding signal was 0.0136 KA relative to UGCAUGU.
